PubChem BioAssay AID1963576 (National Center for Advancing Translational Sciences (NCATS), 2024)
In all, about 46,000 compounds went through this assay and about 60 (0.1%) were called active. Not shown: some 3% with an inconclusive outcome. The call rests on the fitted dose curve; in most records, active means well fitted inhibition curve with a large enough effect; inconclusive means small, poorly fitted or top-dose-only effect; inactive means no such curve, though single readings can be large or run the other way. Some of the results follow.

experiment: Primary qHTS assay for Inhibitors of ovarian cancer metastasis using an organotypic tumor microenvironment (TME) model.; further: nearly all actives have a fitted effect of over 65% in size;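 on activity change, negative = inhibition: plate controls were DMSO wells for no effect and tomatine positive control wells for full effect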; settings: SKOV3ip1-GFP adhesion/invasion on 3D omental model, fluorescence; series mostly up to 45.8 µM; activity change, negative = inhibition: at the top concentration
Outline: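 qHTS, 4-pt dose (0.36-46 umol/L); SKOV3ip1-GFP, 1,200 cells/well, no FBS; primary omental fibroblast/mesothelial co-culture 48 h pre-grown; 2 h RT + 16 h 37 C; PBS wash, 4% PFA; GFP count 488/509 nm.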

Row | SMILES | activity change, negative = inhibition | outcome
1 | Cc1nc2nc(SCC(=O)NCCc3ccc(Cl)cc3)nn2c(C)c1Cc1ccccc1Cl | inactive: -1.98% | –
2 | Cc1ccccc1C1=CCN(c2ncc(NC(=O)c3ccc(Cl)cc3)cc2C(=O)O)CC1 | inactive: -7.72% | –
3 | CCOc1ccccc1CNCc1c(C(=O)O)n(Cc2ccc(F)cc2)c2cc(C)ccc12 | – | inactive
4 | O=C1CC(c2ccc(F)cc2)c2c(c3ccccc3[nH]c2=O)O1 (stereo not given) | – | inactive
5 | CCOc1ccccc1NC(=O)Nc1cc2c(cc1N1CCCCC1)n(CC)c(=O)n2CC | inactive: -1.69% | –
6 | CCOC(=O)c1ccc(NC(=O)CSc2nccn2-c2cc(C)cc(C)c2)cc1 | inactive: 4.66% | –
7 | CC(=O)c1ccc(N2CCN(C(=O)CCn3cnc4onc(-c5ccc(F)cc5)c4c3=O)CC2)cc1 | inactive: 9.5% | –
8 | Cc1cc(C)cc(NC(=O)CNS(=O)(=O)c2ccc3nc(C)sc3c2)c1 | – | inactive
9 | Cc1ccc(-c2noc(-c3cc(-c4ccc(F)cc4)n[nH]3)n2)cc1 | inactive: -23.4% | –
10 | O=C(Nc1c(-c2ccccc2)nc2ccccn12)c1ccccc1F | inactive: -2.77% | –
11 | CCn1cc(C(=O)NCCc2ccc(C)cc2)c(=O)c2cc(S(=O)(=O)N3CCc4ccccc4C3)ccc21 | – | inactive
12 | CCOc1ccc(OC(=O)c2c(-c3ccccc3Cl)noc2C)cc1 | – | inactive
13 | CCN(C(=O)C1CCCN(c2ncnc3c2nc2n3CCCCC2)C1)c1cccc(C)c1 (stereo not given) | inactive: 10.4% | –
14 | Cc1ccc(NC(=O)CN2C(=O)c3ccccc3Sc3ccc(C(=O)N4CCOCC4)cc32)c(Cl)c1 | inactive: 8.96% | –
15 | CN1C(=O)Cc2cc(S(=O)(=O)CCC(=O)Nc3ccc(OC(F)(F)F)cc3)ccc21 | – | inactive
16 | CCN(CC)S(=O)(=O)c1ccc2oc(C(=O)Nc3cc(C)ccc3OC)c(C)c2c1 | inactive: -12.8% | –
17 | CCc1cc2c(cc3c(=O)n(CC(=O)NCc4cc(Br)ccc4OC)ncn32)s1 | inactive: 8.02% | –
18 | COc1ccc(C(=O)Nc2ccc3oc(-c4ccc5ccccc5c4)nc3c2)cc1Br | – | inactive
19 | Cn1cccc1-c1cc2n(n1)CCC(=O)N2CCCC(=O)NCc1ccc(F)cc1 | inactive: 1.32% | –
20 | CCOc1ccc(-c2nnc(SCC(=O)c3ccccc3)n2-c2ccccc2)cc1 | inactive: -7.24% | –
21 | COC(=O)CNC(=O)N1CCN(S(=O)(=O)c2ccc3c(ccn3C)c2)CC1 | inactive: -9.75% | –
22 | CCOc1ccc(NC(=O)C2CCN(S(=O)(=O)c3c(C)noc3/C=C/c3cccs3)CC2)cc1 | inactive: -1.4% | –
23 | CCCCNC(=O)CN1C(=O)COc2ccc(S(=O)(=O)N3CCCCCC3)cc21 | inactive: 4.31% | –
24 | COc1ccc2cc(CNc3ccc(OC)c(OC)c3)c(=O)n(CC(=O)Nc3ccccc3F)c2c1 | inactive: 4.22% | –

Row | SMILES | activity change, negative = inhibition | outcome
25 | CCOC(=O)c1[nH]c(C)c(CCC(=O)Nc2cccc(SC)c2)c1C | inactive: 2.17% | –
26 | Cc1cc(=O)[nH]c2nnc(SCc3ccc(C(F)(F)F)cc3)n12 | inactive: -5.95% | –
27 | Cc1cccc(C)c1NC(=O)Cn1c(SCC(=O)NCc2ccccc2)nc2ccccc21 | inactive: 0.658% | –
28 | Cc1ccc(NC(=O)c2ncoc2-c2ccco2)cc1Cl | inactive: 1.16% | –
29 | Fc1cccc(Cl)c1CNCCSc1nnnn1-c1ccccc1 | inactive: 2.19% | –
30 | O=C(Nc1cc2ccc(O)cc2oc1=O)c1ccccc1 | inactive: -23.8% | –
31 | CC(C)CCNC(=O)c1ccc2c(c1)N(Cc1ccccc1F)C(=O)c1ccccc1S2(=O)=O | inactive: -7.42% | –
32 | O=C(CNC(=O)c1ccccc1F)OCc1cc(=O)n2nc(C3CCCCC3)sc2n1 | – | inactive
33 | COc1cccc(C(=O)N(Cc2ccco2)c2ccccn2)c1 | inactive: 3.58% | –
34 | CCN1C(=O)c2ccccc2S(=O)c2ccc(C(=O)NCc3ccc(C)cc3)cc21 (stereo not given) | inactive: -9.89% | –
35 | COc1cc(NC(=O)C2CCN(S(=O)(=O)c3c(C)noc3/C=C/c3cccs3)CC2)cc(OC)c1 | – | inactive
36 | COc1ccc(S(=O)(=O)N(CC(=O)Nc2ccc(OC)cc2OC)c2ccc(Cl)cc2)cc1 | – | inactive
37 | CCOc1cccc(C(=O)Nc2nnc(S(=O)(=O)N(C)c3ccc(C)cc3)s2)c1 | – | inactive
38 | COc1ccc(NC(=O)CC2C(=O)N(c3ccccc3)C(=O)N2CCC2=CCCCC2)cc1 (stereo not given) | inactive: -2.11% | –
39 | Cc1ccc2c(c1)c(=O)c(C(=O)c1ccccc1)cn2Cc1ccccc1F | inactive: -16.2% | –
40 | Cc1cccc(N2CC(c3nc4ccc(C)cc4[nH]3)CC2=O)c1 (stereo not given) | inactive: 12.9% | –
41 | CCOc1ccccc1C1C(C(N)=O)=C(C)Nc2nc(-c3ccccc3Cl)nn21 (stereo not given) | inactive: 6.27% | –
42 | CCC1CN(C(=O)Nc2ccccc2C(F)(F)F)c2ccccc2O1 (stereo not given) | – | inactive
43 | COc1ccc(/C=C(/C#N)c2nc(-c3cc4ccccc4oc3=O)cs2)cc1 | inactive: 1.26% | –
44 | Cc1c(CNC2CCC(C)CC2)c(C(=O)O)c(C)n1Cc1ccccc1F (stereo not given) | inactive: 2.1% | –
45 | COc1ccc(-c2nc(SCC(=O)c3ccc(Br)cc3)n[nH]2)cc1 | – | inactive
46 | Cn1ccc2cc(S(=O)(=O)N3CCCC(C(=O)NCc4ccc(F)cc4)C3)ccc21 (stereo not given) | inactive: -6.58% | –
47 | Cc1cc(C)n(CCc2nc3c4ccccc4nc(SCc4ccc(Cl)cc4)n3n2)n1 | inactive: 12.2% | –
48 | O=C(NC1(C(F)(F)F)N=C(c2ccccc2)N(C2CCCCC2)C1=O)c1ccc(F)cc1 (stereo not given) | – | inactive

Row | SMILES | activity change, negative = inhibition | outcome
49 | CCOc1ccc(NC(=O)CC2C(=O)N(c3ccc(C)cc3)C(=O)N2C2CCCCC2)cc1 (stereo not given) | inactive: 2.19% | –
50 | N#Cc1cccc(NC(=O)C2CCN(c3cnccn3)CC2)c1 | inactive: -0.245% | –
51 | CC(=O)Nc1ccc(NC(=O)c2cc3c(=O)n(Cc4cccnc4)ccc3nc2C)cc1 | inactive: -1.26% | –
52 | CCOc1ccccc1-c1noc(CCCC(=O)Nc2cccc(C(F)(F)F)c2)n1 | inactive: -4.67% | –
53 | O=C(CSc1nc(-c2ccc(F)cc2)nc2c1Cc1ccccc1O2)Nc1cccc(C(=O)O)c1 | – | inactive
54 | COC(=O)c1ccc(C2C=C(c3ccc(Cl)cc3)Nc3nc4ccccc4n32)cc1 (stereo not given) | inactive: -18.1% | –
55 | CC(=O)N1CCc2c(sc3c2c(=O)n(-c2ccccc2C)c(=O)n3CC(=O)c2ccccc2)C1 | – | inactive
56 | O=C(NCC(c1cccnc1)N1CCc2ccccc21)c1ccc(F)c(F)c1 (stereo not given) | inactive: -5.93% | –
57 | Cc1cc(C)c2oc(C(=O)Nc3c(C)n(C)n(-c4ccccc4)c3=O)cc(=O)c2c1 | inactive: 5.32% | –
58 | CCOC(=O)CCN(c1ccccc1)S(=O)(=O)c1cc(-c2cc(C)no2)ccc1C | inactive: -1.03% | –
59 | Cc1cn(C)c(CC(=O)N2CCN(c3cccc(C(F)(F)F)c3)CC2)c1C(=O)O | inactive: 1.35% | –
60 | CCc1cc2c(cc3c(=O)n(CC(=O)NC4CCCCC4)nc(CC)n32)s1 | inactive: -8.73% | –
61 | Cc1ccc(C(=O)NCC(=O)OCc2cc(=O)n3c(C)csc3n2)cc1 | – | inactive
62 | Cc1ccc(-n2nc3cc(C)c(NC(=O)COc4ccccc4)cc3n2)cc1 | inactive: 7.08% | –
63 | Cc1ccc(-n2cc3c(c2-c2ccccc2Br)c(=O)n(C)c(=O)n3C)cc1N | inactive: -11.2% | –
64 | Cc1cccc(C(=O)Nc2cccc(OCc3cc(=O)n4cc(C)sc4n3)c2)c1 | inactive: -8.62% | –
65 | Cc1ccc(C)c(NC(=O)Cn2c(=O)n(-c3ccccc3C)c(=O)c3c2c2cc(C)ccc2n3C)c1 | inactive: -2.6% | –
66 | CC(C)n1cc2c(c1-c1ccccc1Cl)c(=O)n(C)c(=O)n2C | inactive: 7.34% | –
67 | COc1ccccc1N1CCN(CCCNC(=O)c2nnc(Cc3c(F)cccc3Cl)o2)CC1 | inactive: 1.62% | –
68 | COc1ccccc1-c1nc2c(c(SCC(=O)Nc3ccccc3F)n1)Cc1c(CO)cnc(C)c1O2 | inactive: 8.05% | –
69 | COc1ccc(NC(=O)C2CCCN(C(=O)c3cnn(-c4ccccc4)c3-n3cccc3)C2)cc1 (stereo not given) | – | inactive
70 | CCOc1ccc(CCNC(=O)CS(=O)(=O)Cc2nc(-c3cccc(Cl)c3)oc2C)cc1 | inactive: -11.4% | –
71 | CC(O)CNC(=O)C(=O)Nc1c2c(nn1-c1ccc(Cl)cc1)CSC2 (stereo not given) | inactive: -2.38% | –
72 | Cc1ccc2c(=O)cc(C(=O)N(Cc3ccccc3Cl)C3CCS(=O)(=O)C3)oc2c1 (stereo not given) | inactive: 3.5% | –

Row | SMILES | activity change, negative = inhibition | outcome
73 | COc1ccc(-c2cc(-c3ccccc3)c(C#N)c(SCC(O)CS(=O)(=O)Cc3ccccc3)n2)cc1 (stereo not given) | inactive: -2.53% | –
74 | COc1ccccc1C(=O)Nc1c(C(=O)N2CCN(c3ccc(F)cc3)CC2)oc2ccccc12 | inactive: -1.75% | –
75 | COc1ccccc1-c1nc2c(c(SCc3ccc(F)cc3Cl)n1)Cc1c(CO)cnc(C)c1O2 | inactive: -3.37% | –
76 | CCOC(=O)c1c(C)[nH]c(C)c1S(=O)(=O)N1CCC(C(=O)N2CCN(c3cccc(C)c3C)CC2)CC1 | inactive: 1.31% | –
77 | COc1ccc(CCNc2nc(-c3ccc(Cl)cc3)cc(C(F)(F)F)n2)cc1OC | – | inactive
78 | COC(=O)c1ccc(NC(=O)CCc2c(C)nn(-c3ccc(N4CCOCC4)nn3)c2C)cc1 | – | inactive
79 | O=C(Nc1ccc(F)cc1)c1ccc(Cn2nc(N3CCN(c4ccccc4)CC3)ccc2=O)o1 | – | inactive
80 | CCc1ccc(NC(=O)c2sc3nc4c(cc3c2N)CN(CC)CC4)cc1 | inactive: -10.6% | –
81 | COc1ccc(Cl)cc1NC(=O)Cc1coc2c(C)c(C)ccc12 | inactive: -2.31% | –
82 | COc1cccc(-c2cc(C(=O)N3CCN(c4ccccc4OC)CC3)no2)c1 | inactive: 1.88% | –
83 | CCC(CC)C(=O)Nc1c(C(=O)N2CCN(c3ccccc3)CC2)oc2ccccc12 | inactive: -3.36% | –
84 | Cc1cc(C)c2c(=O)cc(C(=O)Nc3nc4ccc(F)cc4s3)oc2c1 | inactive: 6.14% | –
85 | NC(=O)c1cccc(N)c1 | inactive: 12.5% | –
86 | Cc1cccc(CSc2nc3cc(C(=O)NC4CCCC4)ccc3c(=O)n2Cc2ccccc2)c1 | inactive: -0.84% | –
87 | Cc1coc2cc3oc(=O)c(CC(=O)N4CCCCC4)c(C)c3cc12 | inactive: 0.346% | –
88 | Cc1ccc(CNS(=O)(=O)c2ccc(-c3cnc(C4CC4)o3)cc2)cc1 | – | inactive
89 | CCc1cccc(NC(=O)Cn2c(=O)c(C(F)(F)F)nc3ccccc32)c1 | – | inactive
90 | Cc1cc(N(C)Cc2ccccc2)n2nc(-c3ccc(C(C)(C)C)cc3)nc2n1 | – | inactive
91 | Cc1ccc(-n2nc(C(C)(C)C)cc2NC(=O)Nc2ccc(OCCN3CCOCC3)c3ccccc23)cc1 | inactive: 26.3% | –
92 | CC1CCCCN1C(=O)c1ccc2c(c1)N(Cc1cccc(Cl)c1)C(=O)c1ccccc1S2=O (stereo not given) | inactive: -3.52% | –
93 | CCCCNC(=O)c1cccc(-n2cnc3cccnc32)c1C | – | inactive
94 | CCCCCn1c(=O)[nH]c2cc(C(=O)NCCN(C)CCCC)ccc2c1=O | – | inactive
95 | COc1ccc(CNC(=O)CCc2c(C)nn(-c3ccc(N4CCCCC4)nn3)c2C)cc1 | inactive: 21.7% | –
